Source: PubChem BioAssay AID1508642 (National Center for Advancing Translational Sciences (NCATS), 2021)
Hit rate of the full screen: of about 43,000 compounds, about 200 (0.47%) were called active. Inconclusive results (about 12%) are left out. Calls come from the whole dose curve; as a rule, active = well fitted cell-killing curve with a large enough effect; inconclusive = small, poorly fitted or top-dose-only effect, or effect the other way; inactive = flat fitted curve, though single readings scatter. The list shows a part of the results.

assay: Cell viability qHTS assay in S16 Pmp22-F2sN cells; conditions: S16 Pmp22-F2sN Schwann cells viability, CellTiter-Glo, 24 h; series mostly up to 57.5 µM; activity change, negative = cytotoxicity: at the top concentration; note: nearly all actives have a fitted effect of over 65% in size
In short: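 Used to flag compounds lowering reporter output through toxicity, this quantitative HTS measures ATP-based CellTiter-Glo luminescence in S16 Pmp22-F2sN Schwann cells after 24 h compound exposure at 37C.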
% is set by controls: 0 for no effect and ±100 for the full control effect.

Structure (SMILES)	activity change, negative = cytotoxicity
Cc1oc(-c2ccccc2F)nc1CSc1nnc(C)n2c1cc1occc12	inactive: 7.46%
CC(C)(C)OC(=O)N1CCC(c2c(C(=O)N3CCOCC3)cnn2-c2cccc(F)c2)CC1	inactive: -28.3%
COC(=O)c1ccccc1-n1cc2c(c1-c1cccc(C)c1)c(=O)n(C)c(=O)n2C	inactive: -1.51%
O=C(Nc1ccc(F)c(Cl)c1)N1CCC(CN2CCc3ccccc3C2)CC1	inactive: 8.38%
Cc1cccc(-c2nc3ccccc3n3c(-c4ccccc4)c4c(=O)n(C)c(=O)n(C)c4c23)c1	inactive: -1.39%
Cc1cc(C)cc(N2CCn3c2nc2c3c(=O)n(CCCc3ccccc3)c(=O)n2C)c1	inactive: 11.3%
CC(C)(C)C(=O)Cn1c(=O)n(-c2ccc(Cl)c(Cl)c2)c(=O)c2c3c(sc21)CCCC3	inactive: 8.94%
CCOc1ccc(-c2noc(CSc3nnc(Cc4ccccc4)n3-c3cccc(C)c3)n2)cc1	inactive: -23.7%
Cc1ccc(-c2nc3cc(C(C)C)ccc3o2)cc1NC(=O)c1cc([N+](=O)[O-])ccc1N1CCOCC1	inactive: -0.381%
COCCCNC(=O)C1CCCN(c2nn3cc(-c4ccc(C)cc4)nc3s2)C1 (stereo not given)	inactive: -0.765%
Cc1ccc(CNC(=O)CCCn2c(=O)c3ccccc3n(Cc3ccc(Cl)cc3)c2=O)cc1	inactive: 12.9%
CN(C(=O)CSc1nnc(-c2ccc([N+](=O)[O-])cc2)o1)c1ccccc1	inactive: 17.2%
Cc1ccc(CNC(=O)CCC(=O)N2CCSc3ccccc32)cc1	inactive: 8.49%
COc1ccc(CCNC(=O)Cn2cc(C(=O)c3ccc(F)cc3)c(=O)c3ccc(C)nc32)cc1OC	inactive: 18.3%
CCc1ccc(NC(=O)N2CCN(C(=O)c3nsc4ccccc34)CC2)cc1	inactive: 7.68%
O=C(Nc1ccc(C(F)(F)F)cc1)N1CCC(N2CCCCC2)CC1	inactive: 8.59%
CNC(=O)C1CCN(c2nc3ccccc3nc2C(F)(F)F)CC1	inactive: -19.2%
CCCN(C(=O)Cn1cc(S(=O)(=O)N2CCN(c3ccccc3F)CC2)c2ccccc2c1=O)c1cccc(C)c1	inactive: -8.9%
CC(C)CN(CCNC(=O)c1cc(-c2ccc(Cl)s2)nc2ccccc12)CC(C)C	inactive: -1.21%
COc1cccc(CNC(=O)Cn2c(C)c3cnn(-c4ccccc4)c(=O)c3c2C)c1	inactive: 13.9%

Structure (SMILES)	activity change, negative = cytotoxicity
COc1cc(Cl)c(C)cc1NC(=O)c1cnc2c(-c3cccc(C)c3)c(C)nn2c1C	inactive: 0.461%
Cc1ccsc1CN1CCc2nc(N3CCN(c4ccccc4F)CC3)ncc2C1	inactive: -5.48%
CNC(=O)c1ccc(CSc2nc3ccncc3n2Cc2ccc(C)cc2)cc1	inactive: -26.8%
Brc1ccc2nc(SCCOc3ccccc3)[nH]c2c1	inactive: -1.82%
Cc1ccc2c(c1)N(C(=O)Nc1cccc3c1CCCC3)CC(C)O2 (stereo not given)	inactive: -17.3%
Cc1ccc2oc(-c3cc(NC(=O)/C=C/c4ccco4)ccc3Cl)nc2c1	inactive: 0.743%
CC(=O)Nc1nonc1-c1nc2ccccc2n1Cc1ccccc1Br	inactive: 1.24%
COc1cc2c(cc1OC)C(COc1ccc3c(C)cc(=O)oc3c1)N(C(=O)CC(C)C)CC2 (stereo not given)	inactive: -2.23%
CN1CCN(C(CNC(=O)c2ccccc2)c2ccc3c(c2)OCO3)CC1 (stereo not given)	inactive: 7.79%
O=C(NCc1cccc(Cl)c1)C1CCCN(c2ncnc3onc(-c4ccc(F)cc4)c23)C1 (stereo not given)	inactive: -17.4%
CCn1c(=O)cc(SCC(=O)N2CCN(c3ccccc3F)CC2)c2ccccc21	inactive: -3.07%
CCOc1ccc(NC(=O)c2c(NC(=O)c3cccs3)sc3c2CCC(C(C)(C)C)C3)cc1 (stereo not given)	inactive: 16.5%
COc1ccccc1NC(=O)c1cc(S(=O)(=O)NCCC2=CCCCC2)ccc1F	inactive: -3.84%
Cc1ccccc1CN1CCCN(CC(=O)Nc2ccc3c(c2)OCCO3)S1(=O)=O	inactive: 1.03%
COc1ccc(NC(=O)CCc2c(C)nc3c(-c4ccc(F)cc4)c(C)nn3c2C)c(OC)c1	inactive: 10.5%
COC(=O)c1cc(NC(=O)c2ccc(-c3ccc(Cl)cc3Cl)o2)cc(C(=O)OC)c1	inactive: 4.09%
CCOC(=O)c1noc2nc(C)n(Cc3ccc([N+](=O)[O-])cc3)c(=O)c12	inactive: 6.22%
Cc1cccc(Cn2nnc3c(=O)[nH]c(C4CCN(C(=O)c5ccc(F)cc5)CC4)nc32)c1	inactive: -11.7%
COc1ccc(NC(=O)NC(C)c2c(-n3cccc3)sc3c2CCN(C)C3)c(OC)c1 (stereo not given)	inactive: 3.3%
CCOc1ccc(NC(=O)CN(C)S(=O)(=O)c2cnc[nH]2)cc1	inactive: -9.96%

Structure (SMILES)	activity change, negative = cytotoxicity
Nc1c(C(=O)Nc2cccc(C(F)(F)F)c2)c2ccccn2c1C(=O)c1ccccc1	inactive: -0.0254%
CCOC(=O)c1sc(NC(=O)c2cc(-c3ccc(F)cc3)on2)c(C(=O)OCC)c1C	inactive: 1.06%
Cc1c(CC(=O)NCCc2ccc(Cl)cc2)c(=O)oc2c(C)c3occ(C(C)(C)C)c3cc12	inactive: -17.2%
Cc1ccc(NC(=O)C2CCCN(S(=O)(=O)c3cccc4cccnc34)C2)c(C)c1 (stereo not given)	inactive: -15.9%
CCOC(=O)CSc1nc2ccc(NC(=O)c3ccccc3F)cc2s1	inactive: 1.22%
Cc1ccccc1-c1nc2cc(NC(=O)COc3ccc(F)cc3)ccc2o1	inactive: 10.4%
CCOC(=O)c1c(-c2ccccc2)csc1NC(=O)c1cc(-c2ccc(Cl)cc2)on1	inactive: 2.02%
CCS(=O)(=O)c1nc(S(=O)(=O)c2ccc(Cl)cc2)c(NCc2ccccc2Cl)s1	inactive: -25.8%
CCOc1ccc(CNC(=O)c2ccc(Sc3ccc(Cl)cc3)c(NC(C)=O)c2)cc1OC	inactive: 1.84%
COc1ccc(OC)c(C2c3c(oc4ccc(C)cc4c3=O)C(=O)N2CCCN(C)C)c1 (stereo not given)	inactive: -1.95%
CC(=O)Nc1cccc(NC(=O)c2c(-c3ccccc3)c(-c3ccccc3)nn(C)c2=O)c1	inactive: -14.9%
CCc1ccccc1NS(=O)(=O)c1ccc2c(c1)OCC(C(=O)N1CCCC1)O2 (stereo not given)	inactive: -17.2%
CCCN(CCC)C(=O)CSc1nc2sc3c(c2c(=O)n1-c1ccccc1)CCN(C(C)=O)C3	inactive: -27.4%
O=C(NCCC1=CCCCC1)c1ccc2c(c1)ncn2-c1ccc(F)c(F)c1	inactive: -0.107%
O=c1c2c(-c3ccc(Cl)cc3)ccnc2[nH]n1-c1ccccc1	inactive: 26.7%
CCC(C(=O)Nc1cc(-c2nc3cccnc3s2)ccc1C)c1ccccc1 (stereo not given)	inactive: 3.39%
Cc1ccc(Cl)cc1NC(=O)Cn1c(=O)c2ccccc2n2nncc12	inactive: 8.74%
CCOc1ccccc1C1CC(=O)Oc2c1c(=O)n(C)c1ccccc21 (stereo not given)	inactive: -1.76%
CCc1ccc(-n2nc3ccc(NC(=O)c4ccc(C#N)cc4F)cc3n2)cc1	inactive: 12.6%
COc1cccc(CNC(=O)C2CCN(c3nnc(-n4c(C)ccc4C)s3)CC2)c1	inactive: -1.25%
